According to the supplement of paper PMC10126150:
Sequences with one replicate were seen in a single cluster, so their values are uncertain.

System: ATP
Experiment: switch fluorescence ratio, 500 uM ATP over buffer (Cy3 cluster intensity, sum of 5 cycles each) (fold (ratio)); higher = stronger signal-on switching upon ATP binding; sequences stand for … in TCGTCGGCAGCGTCAGATGTGTATAAGAGACAGTTTTTTTTTTTTTTTTTTTTTTTTT…TC
Settings: aptamer strand: ATP DNA aptamer (quencher-CACCTGGGGGAGTATTGCGGAGGAAGG + anchor), 100 nM annealed; ATP concentration: 500 uM; one replicate
Outline: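 The quencher-labelled ATP aptamer, at 100 nM, was annealed to Cy3-labelled switching-strand clusters on a modified Illumina MiSeq flow-cell. The clusters were imaged in selection buffer, then after 15 min with 500 uM ATP at 22 °C, and this buffer/ATP cycle ran five times with NaOH stripping and re-annealing between runs. Per-cluster fluorescence ratios, summed target-cycle over summed buffer-cycle Cy3 intensity, were averaged per switch-domain sequence. Clusters outside 100-1000 RFU were excluded.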
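Note: ATP exposure 15 min at 22 °C before imaging.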

Sequence | switch fluorescence ratio
TGGTTAGGA | 0.981
TTGTCTGCCC | 1
TGGTCTTGAC | 1.01
AAGACGAAGT | 1.01
CTCTTAGGGC | 0.943
CTGGTCCCGC | 1.05
ATTATTTATT | 0.963
GACAAAATAA | 1.04
CTAAAAGTCG | 1.05
GGGGTACTGT | 0.999
CCTGGTTGA | 0.983
GTAGGAACCA | 1.02
AGACTTTTGT | 0.976
GGCCCTCTAC | 1.03
ACTTGAGCCT | 1.06
CAATGTAGAG | 0.992
AATCTAAAAA | 1.01
ACGTAAAATT | 1
AAGCAATCGT | 0.967
GTAGTGCGTC | 1.06
CGGCGTTGG | 0.984
ATAAAAGCT | 1.06
GTGGATGTA | 0.991

Sequence | switch fluorescence ratio
GCCTTCTGCT | 0.994
ATTGGGCATA | 0.979
AACTATCTCG | 0.999
TATCCCCGAA | 1.05
GTTTCGATTA | 0.967
AGTCGTGCGT | 0.957
GGTGCGGTGA | 1
AAAATGACGC | 1.07
GCCGTAGATA | 0.974
TCTAAACAGC | 1.02
AGAGGGTCGT | 0.966
CATCGGGGGC | 1.07
CGAGGGCAC | 1.01
GCCTATGTGC | 0.977
CCCATTGGCT | 1.02
TAGAAAGCGC | 1.1
GGAGGTGTGG | 1.01
AGCGACGGGG | 0.946
TATAAGATTC | 1.05
GGTGCCGTTA | 1
ATGTTCCACT | 0.995
TAACTGTCAC | 1.32
CTGGCCAAGC | 1.04

Sequence | switch fluorescence ratio
CGGCAAACCA | 1
TCCGGTTTGT | 1.05
TCTGCGAGCC | 1.18
CCGATAAGGT | 1.1
GGTATAGCTT | 0.98
AATGCACCCA | 1.04
ATTCTTGTGC | 0.925
ACCTGACGGA | 1.57
TAGGGGGTC | 0.986
CCACATTTGG | 1.05
ATAATAAACA | 0.985
GTAGTGGACA | 1
GGGAGCCGCG | 1.03
ACGTATTGCC | 1.08
GTCTGATAGA | 0.988
TTTACCAAGG | 0.994
CTGCCTTCCG | 2.28
ATGATACGCT | 1.05
ATCTAGAGGC | 1.01
ACGGGAAATC | 1.06
ATAATTAG | 0.995
CGCTCACAT | 1.29
TAGAGTGTTG | 0.967

Sequence | switch fluorescence ratio
GTGGGTACGC | 1.03
TGGTGAGGCG | 1.02
AACCCGTGAC | 1.22
GACAGTTGAT | 0.995
ACTAAAGCGC | 1.05
TGCAGATCCA | 1
TTCTTGGCGT | 0.993
GATCTTAGTC | 1.01
ATGGCTTTCT | 1.01
ATGAGGACAG | 0.949
TGATCCCTGG | 1.03
GGTAGAACGA | 0.948
TATAGACGCA | 1.09
ATTGCCCAGA | 0.995
ACTACACATA | 1.35
TACCTAAGTC | 0.99
ATTTACGTC | 1.02
TACTGGTTGT | 1.04
ATAGCACTAT | 1.09
CCATACTGCA | 1.21
GACCTGGGGA | 1.02
ACGAAAAGTA | 1.06
AACATATTTT | 1.03

Sequence | switch fluorescence ratio
GGCATCCGTT | 0.996
ATCGATCCGC | 1.23
TTCATGAGAG | 1.01
CGAGTCACGT | 0.97
TCATAGGGAG | 0.977
CATCGAAAGT | 1.08
GGGGTGCAAG | 0.935
CGAGGGACAT | 1.02
CAGATTGGAG | 0.991
ATAAACCTCA | 1.18
TCCTTTGTGC | 1.05
TGTGACCTTA | 1.02
GCCCCATGGG | 1.05
TACCGCATTT | 1.59
GGATCCTAGT | 1.05
CCCTGTGCTG | 1.07
TTTCTGTCGA | 0.997
CGCGGGTATC | 1.04
CTTTACTGAA | 1
CTTTCAGGTT | 1.05
AGTAGTACGA | 1.11
TAGGGATCCG | 1.02
TGGGATAGCT | 0.989

Sequence | switch fluorescence ratio
ACCGTTTCCG | 1.11
CTCCGTGGCA | 1.96
ACTGATTTGA | 0.981
GTGTGCACAC | 1.01
GGGGCCCCTT | 1.02
ACCGACACAG | 1.09
ACGAGGTGTG | 1.06
AAACAAAGG | 0.977
CATACGCTTA | 3.12
GCAGATACGA | 1.8
GAGCACTTCT | 1.02
CCCTGATTCA | 1.02
TGATGTCCGC | 1.42
AATTAGGGCC | 0.96
GGTGATGCAC | 1.01
TGGTCCGGAT | 0.993
CGAGGTTTA | 0.977
GGCGCCATGC | 1.09
GAAGTCATGA | 1.01
TATCGCGCTG | 0.964
ACGCAGATTA | 1.16
TGCAAGAGGT | 1.03
GGTGCACGTG | 1.03

Sequence | switch fluorescence ratio
TGATACCGGT | 1.11
GTTTGTCTGG | 1.06
GTGGGGCGAA | 0.987
CACGGCCTTT | 1.06
GGTATTTCCC | 1.16
TGTCAGCGGC | 1.04
TTGACGACCG | 1
GCTGCCAGCA | 0.999
GGGGAACTGT | 0.951
CTGTATGCTT | 1.02
CGAGTAGTCT | 0.993
CGCGCTTAGG | 1.09
TTGCGCGAAG | 1.02
CAAAAGCGCG | 1.13
GCATGTTTCC | 1.07
GGGAGGCTGT | 0.991
ACCTCAATGA | 1.09
ACAAAATCAA | 1.01
AAACACCTGA | 1.17
